Measured values as given in the RNAGym collection of RNA variant scans (doi:10.1101/gad.245936.114).
Variants at the background level are over-represented here.

B1: tRNA (parent)
chain: CUCUCGGUAGCCAAGUUGGUUUAAGGCGCAAGACUUUAAUUUAUCACUACGAAAUCUUGAGAUCGGGCGUUCGACUCGCCCCCGGGAGAUUUUUUCCUCGAGCAA

Variants of: B1
Assay: nonsense suppression (GFP-seq) (ratio to wild type); higher = more function; SUP4oc tRNA, yeast GFP reporter sort-seq
In short: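 Yeast were grown in raffinose/galactose medium with 80 mg/L adenine, each strain bearing a genome-integrated ochre-suppressor tRNA variant from a ~3% random-mutation library, a galactose-driven GFP ochre reporter, and RFP. After sorting into GFP/RFP bins, every bin was sequenced on an Illumina platform at phred ≥30. The GFPSEQ value, a measure of nonsense suppression, is the weighted bin median GFP/RFP relative to the unmutated parent tRNA, using each variant's estimated cell share per bin as the weight. Only variants with ≥100 reads and ≥30 cells were included.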

Variant | nonsense suppression
C3A U35C | ≤ 0.026
C3A U35G | ≤ 0.026
C3A U35G U57G G69C C72G | ≤ 0.026
C3A U57C | ≤ 0.026
C3A U57C C80G | ≤ 0.026
C3A U58G | ≤ 0.026
C3A U58G C64U G67A C79U | ≤ 0.026
C3A U63C G73U C79G | ≤ 0.026
C3A U63C G73U C79U | ≤ 0.026
C3A U63G | ≤ 0.026
C3A U63G U70G | ≤ 0.026
C3A U70G U76C | ≤ 0.026
C3A U76C G78C | ≤ 0.026
C3G A9G G73C | ≤ 0.026
C3G A9U A24C G65C | ≤ 0.026
C3G A9U U16C | ≤ 0.026
C3G A9U U55C | ≤ 0.026
C3G A13C U70G | ≤ 0.026
C3G A13G | ≤ 0.026
C3G A13U U57C G65A | ≤ 0.026
C3G A14C U35G G88C | ≤ 0.026

Variant | nonsense suppression
C3G A14C U63G | ≤ 0.026
C3G A14U A31G | ≤ 0.026
C3G A14U G86C | ≤ 0.026
C3G A23C | ≤ 0.026
C3G A23G G59C A62U U63C G66C | ≤ 0.026
C3G A23U C27U A89U | ≤ 0.026
C3G A24C A89C | ≤ 0.026
C3G A24G | ≤ 0.026
C3G A24G G59U | ≤ 0.026
C3G A24U | ≤ 0.026
C3G A24U U35A G65C C77G | ≤ 0.026
C3G A30U G61U A62G | ≤ 0.026
C3G A31C G59A | ≤ 0.026
C3G A31G C81G C82A | ≤ 0.026
C3G A31U C72G | ≤ 0.026
C3G A33C | ≤ 0.026
C3G A33C C79G | ≤ 0.026
C3G A33C G59A A74C | ≤ 0.026
C3G A33U | ≤ 0.026
C3G A33U A62G | ≤ 0.026
C3G A54C G86U | ≤ 0.026

Variant | nonsense suppression
C3G A60C | ≤ 0.026
C3G A74C | ≤ 0.026
C3G A74G | ≤ 0.026
C3G A89C | ≤ 0.026
C3G C5A C34A U70G G73U G84U | ≤ 0.026
C3G C5A G19U | ≤ 0.026
C3G C5U C12U U70G U71G | ≤ 0.026
C3G C5U G32U U55G | ≤ 0.026
C3G C11A U57C C81A | ≤ 0.026
C3G C12U U22A C27U C29G U63C C75A | ≤ 0.026
C3G C27A C83A G86C | ≤ 0.026
C3G C27U U63G C83U G85A | ≤ 0.026
C3G C29A C82G C83U | ≤ 0.026
C3G C29A G73U C75U | ≤ 0.026
C3G C29U | ≤ 0.026
C3G C34G C77A | ≤ 0.026
C3G C34U | ≤ 0.026
C3G C56A | ≤ 0.026
C3G C56G | ≤ 0.026
C3G C56G U63C G69U G84A A87C | ≤ 0.026
C3G C64U C80A | ≤ 0.026

Variant | nonsense suppression
C3G C68U | ≤ 0.026
C3G C72U | ≤ 0.026
C3G C81A | ≤ 0.026
C3G C82G | ≤ 0.026
C3G G6C A30G U76A A89C | ≤ 0.026
C3G G6C U8C A30C U71C | ≤ 0.026
C3G G6C U20A U35C U58C G61U U63C | ≤ 0.026
C3G G7A C56G C79G | 0.783
C3G G7C G26U | ≤ 0.026
C3G G7U C64G A89G | ≤ 0.026
C3G G10A G61U C75A C81A | ≤ 0.026
C3G G10C A24U C29A G86C | ≤ 0.026
C3G G10C C12G A33G | ≤ 0.026
C3G G15A A62C | ≤ 0.026
C3G G15C U58G G88C | 0.344
C3G G18A G32C U76C C77U C80G | ≤ 0.026
C3G G19A A23U U58A G65C G78A | ≤ 0.026
C3G G25U | ≤ 0.026
C3G G26C | ≤ 0.026
C3G G59C G84U | ≤ 0.026
C3G G59U G67A | ≤ 0.026
